The source of these data is PubChem BioAssay AID488969 (Vanderbilt High Throughput Screening Facility, 2010).

In all, about 110,000 compounds were measured (“z-score”: median about -0.1, highest 2% from about 2 on). Some of the results follow. The source made the active and inactive calls.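 How the source made its calls: active means z-score in the third read window above 3 or below -3; inactive means the rest.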

The target of this experiment is Metabotropic glutamate receptor 8 (Rattus norvegicus) (UniProt P70579). The experiment can be described thus: mGluR8 Gi/Go-coupled signaling modulation – cell-based, rat, thallium flux, HTS, primary screen (AID 488969). The settings on record: HEK293 rat mGluR8, GIRK (G protein-gated inwardly rectifying potassium channel) thallium flux, FluoZin2; at 10 µM; stronger effect = higher value; submaximal glutamate (EC20) added with thallium.
Sequence of UniProt P70579 (P70579 whole entry, looked up): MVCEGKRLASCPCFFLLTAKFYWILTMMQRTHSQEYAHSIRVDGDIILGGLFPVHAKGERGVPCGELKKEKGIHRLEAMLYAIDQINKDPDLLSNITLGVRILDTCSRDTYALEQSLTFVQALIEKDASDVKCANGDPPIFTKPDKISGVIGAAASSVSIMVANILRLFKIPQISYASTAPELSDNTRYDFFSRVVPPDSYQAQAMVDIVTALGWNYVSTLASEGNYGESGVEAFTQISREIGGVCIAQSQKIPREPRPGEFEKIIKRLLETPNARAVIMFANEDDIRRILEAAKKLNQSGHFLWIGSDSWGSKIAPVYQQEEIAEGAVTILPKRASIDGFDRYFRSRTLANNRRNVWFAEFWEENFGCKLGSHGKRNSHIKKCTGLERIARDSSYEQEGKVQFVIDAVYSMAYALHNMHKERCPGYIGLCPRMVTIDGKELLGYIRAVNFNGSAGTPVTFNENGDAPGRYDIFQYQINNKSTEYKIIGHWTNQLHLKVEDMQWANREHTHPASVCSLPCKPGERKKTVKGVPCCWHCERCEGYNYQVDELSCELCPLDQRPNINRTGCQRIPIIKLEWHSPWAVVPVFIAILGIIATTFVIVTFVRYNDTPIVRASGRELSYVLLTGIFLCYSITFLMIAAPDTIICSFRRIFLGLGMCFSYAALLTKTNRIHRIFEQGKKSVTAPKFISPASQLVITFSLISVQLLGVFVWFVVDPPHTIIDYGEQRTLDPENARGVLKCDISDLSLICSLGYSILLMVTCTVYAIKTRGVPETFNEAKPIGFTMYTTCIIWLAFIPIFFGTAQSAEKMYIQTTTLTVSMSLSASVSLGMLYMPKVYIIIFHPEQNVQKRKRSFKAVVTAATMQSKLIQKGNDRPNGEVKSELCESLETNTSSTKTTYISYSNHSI
Consider `CCNC(=S)NNC(=O)C1CCCCC1`, for which the z-score is -0.0378. In turn, `C=CCn1c(SCCOc2ccc(OC)cc2)nnc1C(NC(=O)c1ccc(OC)cc1)C(C)C` (configuration not stated) had a z-score of -0.685. Next, `FC(F)Sc1ccc(-n2cc(-c3ccccc3)[n+]3c2CCC3)cc1`: -0.0431.

The molecule `CC(C)NC(=O)c1ccccc1NC(=O)C1CCCO1` (configuration not stated) gave a z-score of -0.306. Take `CCN(CC)C(=O)CSc1nc2ccccc2c(=O)n1CC`: the z-score is -0.997. The molecule `Cc1cc(NC(=O)CS(=O)(=O)c2cn(Cc3ccccc3Cl)c3ccccc23)no1` had a z-score of 0.0873. The molecule `CCOC(=O)C1CCN(S(=O)(=O)c2ccc(Br)c(OCC)c2)CC1` showed a z-score of -0.359. Then `O=C(NCCN1CCOCC1)c1cc2cc(Cl)cc(Cl)c2oc1=O`, with -0.347. `COc1cc(-c2nnc(SCC(=O)/C(C#N)=C(\C)N)o2)cc(OC)c1OC` came in with a z-score of 0.108. In the case of `Cc1nn(C(C)C(=O)NCCCc2ccccc2)c(=O)c2cc3occc3n12` (configuration not stated), the z-score came to 0.103.

The molecule `CCC(=O)Nc1ccc(Cl)c(NC(=S)NC(=O)c2ccco2)c1` came in with a z-score of -0.0339. Molecule `Nc1nnc(SCC(=O)OCc2ccc(Cl)c(Cl)c2)s1` yielded a z-score of -0.293. `COc1ccc(C(N)=O)cc1N` registered a z-score of -0.409. `CCN(C(=O)CSc1nnc(NC2CCCCC2)s1)C1CCS(=O)(=O)C1` (configuration not stated) showed a z-score of -0.185.

For `CC1CCN(c2ccc(NC(=S)NC(=O)c3ccco3)cc2)CC1`, the z-score is active: 4.93. The molecule `N#CC1=C(SCc2ccccc2)NC(=O)C(C#N)C12CCCC2` (configuration not stated) registered a z-score of -0.595. As to `CCc1c(C(C)S(=O)(=O)c2ccc(C)cc2)[nH]c(=O)n1-c1ccc(C)cc1` (configuration not stated), the z-score worked out at 0.315. In the case of `COC(=O)C1=C(C(=O)OC)C2(OC1c1cccc(F)c1)C(=O)c1ccccc1C2=O` (configuration not stated), the z-score was -0.142.

`O=c1[nH]c(Cc2ccc(F)cc2)nc2scc(-c3ccc(F)cc3)c12` came in with a z-score of -1.4. `O=C(c1coc2ccc(O)c(CN3CCOCC3)c12)C1CC1` came in with a z-score of -0.1.

On to `COc1cc2nc(SCC(N)=O)n(CCC3=CCCCC3)c(=O)c2cc1OC`, for which the z-score was found to be 0.0547.

In turn, `Cc1cc(S(=O)(=O)Nc2ccccc2C)ccc1F` registered a z-score of 0.106.

The molecule `CCOc1ccc(OCC)c(C2C(C#N)=C(N)N(c3cccnc3)C3=C2C(=O)CC(C)(C)C3)c1` (configuration not stated) came in with a z-score of -0.418. As for `Cc1nn(-c2ccccc2)c(C)c1C(=O)OCC(=O)N1CCN(S(=O)(=O)c2ccccc2)CC1`, the z-score was -0.781. The molecule `Cc1ccc(S(=O)(=O)Nc2cc(C(=O)Nc3cc(C)cc(C)c3)ccc2Cl)cc1` gave a z-score of -0.242. Next, `O=C1C2C3C=CC(C3)C2C(=O)N1CCC(=O)N1CCc2ccccc21` (configuration not stated): 0.17; `CCCCC(=O)NS(=O)(=O)c1ccc(N=NN2CCCCC2)cc1`: -0.158. `Cc1ccc2c(c1)cc(CN(Cc1ccc3c(c1)OCO3)C(=O)c1cnccn1)c1nnnn12`: the z-score is -0.0566. Take `O=C1CCCC2=C1C(c1ccco1)Nc1ccc(C(=O)c3ccccc3)cc1N2` (configuration not stated): the z-score is -0.471.

For the molecule `COc1cc2c(cc1OC)CN(S(=O)(=O)c1ccc3c(c1)OCCO3)CC2`, the z-score is 0.172. Molecule `CCCCSc1nnc(-c2ccc(NC(=O)CCc3ccccc3)cc2)n1C` displayed a z-score of 0.441. In turn, `CC(C)(C)c1ccc(OCCC(=O)NC2=NCCS2)cc1` displayed a z-score of 0.503.

Turning to `COc1ccccc1/C=C/C=N/NC(=O)CCn1nnc2ccccc21`, the z-score was -0.626. In turn, `CCOC(=O)c1c(-c2ccccc2)csc1/N=C/C1C(=O)CCCC1=O` showed a z-score of 0.349. Next, `CCC(C)NC(=O)Cn1nc(C(F)(F)F)c2c1CCCC2` (configuration not stated): -0.266; `COc1ccc(/C=C(\C#N)C(=O)NCC2CCCO2)cc1OC` (configuration not stated): 0.621. For the molecule `CCOC(=O)C(C)c1c(C)[nH]c(=S)[nH]c1=O` (configuration not stated), the z-score turned out to be 0.0905. Consider `O=C(NCc1cccs1)C(Cc1ccccc1)NS(=O)(=O)c1cccs1` (configuration not stated), for which the z-score came to 0.468. Then `CCCc1nnc(SCC(=O)N2CCCCC2)n1CC1CCCO1` (configuration not stated), with -0.137; and `CC(C)(C)c1ccc(S(=O)(=O)CCc2ccccn2)cc1`, with -0.00612; and `CCCCOc1ccc(-c2cc(C(=O)NNC(=S)NCC)c3ccccc3n2)cc1`, with -0.155. Take `COCCn1c(=O)[nH]c2cc(C(=O)NCC3CCCO3)ccc2c1=O` (configuration not stated): the z-score is 0.124. Regarding `CCCCCc1c(O)nc(SCC(=O)O)[nH]c1=O`, the z-score is -0.256. The molecule `C=CCNC(=O)C(C)Sc1ccc(Cl)cc1` (configuration not stated) returned a z-score of 0.716. For the molecule `CCCCC(=O)Nc1ccc(N2CCN(S(C)(=O)=O)CC2)cc1`, the z-score was -0.297. Regarding `COC(=O)NC1CCC(NC(=O)OC)CC1` (configuration not stated), the z-score turned out to be 0.304.

Molecule `O=C(CNC(=O)c1ccccc1F)OCC(=O)N1CCCc2ccccc21` registered a z-score of -0.162.

`C=C(C)CC1(NC(C)c2ccccc2)CCCCC1` (configuration not stated) had a z-score of 0.462.

`CN(C(=O)CSc1nnc(Cc2ccccc2F)n1N)C1CCS(=O)(=O)C1` (configuration not stated) yielded a z-score of -0.192. `S=c1[nH]nc(Cc2ccccc2)n1-c1ccccc1`: the z-score amounted to 0.938. The molecule `CCCC(=O)c1ccc(N2CCN(S(=O)(=O)c3ccccc3)CC2)c(F)c1` came in with a z-score of -0.3.

As for `CCCCNC(=S)NNC(=O)c1sccc1C`, the z-score was -0.114. In turn, `O=C(CSc1nnc(-c2ccc(O)cc2)n1Cc1ccco1)N1CCc2ccccc2C1` gave a z-score of -1.85.

`COc1cc(CN2CCC(C(=O)N3CCN(c4ccccc4F)CC3)CC2)cc(OC)c1OC` had a z-score of -1.08. Next, `CC(=O)C1=C(c2ccc(Br)cc2)C(=O)c2ccccc2C1=O`: -1.75; `O=C1CN(C(=O)COC(=O)COc2ccc3c(c2)CCC3)c2ccccc2N1`: 0.478; `CN(Cc1ccccc1)S(=O)(=O)c1ccc(NS(=O)(=O)Cc2ccccc2)cc1`: -0.076. For the molecule `N#Cc1c(Nc2ccc(F)cc2)sc(C(=O)c2ccc(F)cc2)c1N`, the z-score was -0.0216.

As for `COc1cccc(Cn2nnc(C(=O)Nc3ccc(C)cc3)c2N)c1`, the z-score was 0.294. Next, `Cc1cc(C)nc(SCC(=O)Nc2ncc(Cc3cccc(Cl)c3Cl)s2)n1`: -0.305. On to `Cc1ccc(Nc2ncc3c(n2)CC(c2ccco2)CC3=O)c(C)c1` (configuration not stated), for which the z-score was -0.858.

`Cc1ccccc1NS(=O)(=O)c1cc(C(=O)N2CCc3ccccc3C2)ccc1C` registered a z-score of -0.344.

Molecule `Cc1cccc(/C=C2/C(=O)/C(=C/c3ccccc3C)C3CCC2N3C)c1` (configuration not stated) gave a z-score of -0.101. Molecule `O=C1CN(CC(=O)Nc2ccc(Cl)cc2)CCN1` returned a z-score of -0.0523. For the molecule `CC(=O)Nc1ccc(C(=S)NCc2ccco2)cc1`, the z-score was -0.222. The molecule `O=C(NCc1ccco1)c1cc(-c2ccccc2)nc2ccccc12` gave a z-score of -0.694. `Cc1nnc(NC2=NCCC2)o1` returned a z-score of 1.53.

The molecule `C=CCn1c(SCC(=O)Nc2nnc(CC)s2)nnc1-c1cccnc1` had a z-score of -0.71. `CCOC(=O)C1CCCN(Cc2sccc2C)C1` (configuration not stated) had a z-score of -0.208. The molecule `CCOc1cc(C)c(C(C)C)cc1S(=O)(=O)NCc1ccccn1` gave a z-score of -0.429. Turning to `O=C(NCc1ccco1)c1cccc(S(=O)(=O)N2CCc3ccccc32)c1`, the z-score is -0.341. Take `O=C1CC(N2CCN(c3nc4ccccc4s3)CC2)C(=O)N1c1cccc(F)c1` (configuration not stated): the z-score was -0.276.
